Experiment [1] concerns HEK293 cells transfected with control plasmid (pCMV) or plasmids expressing ORF8, ORF10 or M protein. The experiment in a line: Apoptosis assay: early (pSIVA) and late (propidium iodide) apoptosis index, Kinetic Apoptosis Kit. Conditions: for early apoptosis index (pSIVA) / late apoptosis index (PI) / Early Apoptosis Index / Late Apoptosis Index / early apoptosis (pSIVA) / late apoptosis (PI): 24 h; for early apoptosis, dose-dependent effects / late apoptosis, dose-dependent effects: dose response 0-2 μM; for early apoptosis (pSIVA) / late apoptosis (PI): concentration not given.

Experiment [2] has as its system HEK293 (human embryonic kidney) cells transfected with empty control vector (pCMV-3Tag-3a) or vectors expressing the viral Orf8, Orf10 or M proteins. The experiment in a line: Cell proliferation study by BrdU incorporation (colorimetric ELISA). The following applies: 24 h, not normalized to cell number.
Experiment [3] concerns HEK293 cells transfected with control plasmid (pCMV) or plasmids expressing ORF8, ORF10 or M protein. Format: cell-based, human.
Setting [4] is: cells expressing M protein, 1 μM, comparator as stated in the block.
The mark [5] stands for this setting: cells expressing ORF8, ORF10 or M-protein, 1 μM, vs control (pCMV) cells treated with the same cannabinoid.
Where [6] appears, read: cells expressing ORF8, 1 μM, comparator as stated in the block.
The mark [7] stands for this setting: cells expressing ORF10, 1 μM, comparator as stated in the block.
Setting [8] is: control plasmid cells, 1 μM, vs vehicle.
Where [9] appears, read: cells expressing ORF8, ORF10 and M protein.
Where [10] appears, read: cells expressing ORF8, ORF10 and M protein, listed as CBD.
Setting [11] is: control plasmid (pCMV), listed as CBD.
[12] abbreviates: cells expressing ORF8, 2 μM, numbers vs vehicle-treated cells.
[13] abbreviates: cells expressing ORF10, 2 μM, numbers vs vehicle-treated cells.
Where [14] appears, read: control plasmid cells, 2 μM, vs vehicle.
Where [15] appears, read: cells expressing M protein, 2 μM, numbers vs vehicle-treated cells.

SMILES strings stand for the structures. Like-named read-outs stand apart in the source and are kept apart here.

Consider `C=C(C)[C@@H]1CCC(C)=C[C@H]1c1c(O)cc(CCCCC)c(C(=O)O)c1O` [CBDA, Cannabidiolic acid], for which the “early apoptosis index (pSIVA)” value in experiment [1] (setting [4]) is on record as “significant increases”; in experiment [1] (setting [6]), “significant increases”; in experiment [1] (setting [7]), “significant increases”; in experiment [1] (setting [8]), “do not show any significant increase”. For the same molecule, the “late apoptosis index (PI)” value is “significant increases” in experiment [1] (setting [4]), “significant increase” in experiment [1] (setting [7]) and “do not show any significant increase” in experiment [1] (setting [8]). For the same molecule, the “Early Apoptosis Index” value in experiment [1] (setting [5]) is given as “significantly greater levels of early or late apoptosis”. For the same molecule, the “Late Apoptosis Index” value in experiment [1] (cells expressing ORF10 or M-protein, 1 μM, vs control cells treated with the same cannabinoid) is reported as “significantly greater levels of early or late apoptosis”.

Regarding `C=C(C)[C@@H]1CCC(C)=C[C@H]1c1c(O)cc(CCCCC)cc1O` [Cannabidiol, 2-[(1R,6R)-3-Methyl-6-(1-methylethenyl)-2-cyclohexen-1-yl]-5-pentyl-1,3-benzenediol], the BrdU incorporation entry in experiment [2] (control plasmid (pCMV-3Tag-3a) cells, 1 μM cannabinoid) was “does not reduce cell proliferation”. In addition, the “expression of IFIT” value in experiment [3] (1 μM, 48 h) was “enhanced”. Further, in experiment [3] (2 μM, 14 h), the “IFIT and Mx gene expression” value is reported as “not significantly altered”; the “expression of INFλ1” value is listed as 3 fold; the “expression of OAS2 (FIGS. 14A-14C)” value is reported as “more enhanced production”; the “expression of OAS3” value is “more enhanced production”. In experiment [3] (2 μM, 14 h), the “expression of OASL” value is reported as “more enhanced production”; the “gene expression of Type I INFs (INFα and INFβ)” value is recorded as “not significantly altered”; the “induction of INFλ1” value is on record as “further augmented”. The “ability to enhance early or late apoptosis in the presence of viral proteins, comparison of the cannabinoids tested” value in experiment [1] (HEK293 cells transfected with viral proteins) is “most effective”. In experiment [1] (setting [9]), the “early apoptosis, dose-dependent effects” value was “significant increases” and the “late apoptosis, dose-dependent effects” value is “significant increases”. In experiment [1] (setting [10]), the “early apoptosis, dose-dependent effects” value is given as “dose-dependent effect” and the “late apoptosis, dose-dependent effects” value is on record as “dose-dependent effect”. Further, in experiment [1] (cells expressing ORF8, FIG. 9A), the “early apoptosis (pSIVA)” value was “significant increases”. Besides, the “late apoptosis (PI)” value in experiment [1] (cells expressing ORF8, FIG. 9B) is “significant increases”. In experiment [1] (setting [11]), the “early apoptosis, dose-dependent effects” value is reported as “not observed” and the “late apoptosis, dose-dependent effects” value is “not observed”. The “early apoptosis (pSIVA)” value in experiment [1] (control plasmid, FIGS. 9A/9C/9E) is given as “do not show any significant increase”. Also, in experiment [1] (control plasmid, FIGS. 9B/9D/9F), the “late apoptosis (PI)” value is “do not show any significant increase”.

As to `CCCCCc1cc(O)c(C/C=C(\C)CCC=C(C)C)c(O)c1` [Cannabigerol], the “expression of OAS1” value in experiment [3] (1 μM, 24 h) is “enhanced”. Also, the “expression of OAS3” value in experiment [3] (1 μM, 24 h) was “augments”. Further, in experiment [3] (1 μM, 24 h), the “expression of OASL” value is recorded as “more enhanced production”. Also, the “gene expression of Type I INF (interferon-alpha, interferon-beta)” value in experiment [3] (1 μM, 24 h) is “did not differ significantly”. The “early apoptosis index (pSIVA)” value in experiment [1] (setting [4]) is “significant increases”; in experiment [1] (setting [6]), “significant increases”; in experiment [1] (setting [7]), “significant increases”; in experiment [1] (setting [13]), “significant increases”; in experiment [1] (control plasmid cells, 1 μM, vs vehicle, listed as Cannabigerol (CBG)), “present, by 1.85-fold”; in experiment [1] (setting [14]), “significant increase”. Besides, the “late apoptosis index (PI)” value in experiment [1] (setting [4]) is “significant increases”; in experiment [1] (setting [6]), “significant increase”; in experiment [1] (setting [12]) it was “significant increases”; in experiment [1] (setting [7]) it was “significant increases”; in experiment [1] (setting [13]) it was “significant increase”; in experiment [1] (setting [14]) it was “significant increase”. The “early apoptosis, dose-dependent effects” value in experiment [1] (setting [9]) was “significant increases”. Further, in experiment [1] (setting [9]), the “late apoptosis, dose-dependent effects” value was “significant increases”. Further, the “Early Apoptosis Index” value in experiment [1] (cells expressing ORF8, ORF10 or M-protein, 1 μM, vs vehicle only, listed as CBG) is listed as “augments apoptosis above levels resulting just from viral proteins but not above control levels”. Moreover, the “Late Apoptosis Index” value in experiment [1] (cells expressing ORF8, ORF10 or M-protein, 1 μM, vs vehicle, listed as CBG) is on record as “augments apoptosis above levels resulting just from viral proteins but not above control levels”.

As to `CCCCCc1cc(O)c2c(c1)OC(C)(C)c1ccc(C)cc1-2` [cannabinol, Cannabinol], in experiment [3] (1 μM, 24 h), the “expression of Interferon lambda 1” value was “significantly augmented”. In addition, the “expression of OAS1” value in experiment [3] (1 μM, 24 h) is “not significantly enhanced”. Besides, in experiment [3] (1 μM, 24 h), the “expression of OAS2” value is “enhanced”. Also, the “expression of OASL” value in experiment [3] (1 μM, 24 h) is “more enhanced production”. Moreover, the “gene expression of Type I INF (interferon-alpha, interferon-beta)” value in experiment [3] (1 μM, 24 h) is reported as “did not differ significantly”. In addition, the “Type II Interferon gene expression: significant augmentation of interferon-gamma expression” value in experiment [3] (24 hours) was found to be 24 hours does not. For the same molecule, the “Early Apoptosis Index, fold increase in control cells (viral proteins not present)” value in experiment [1] (1 μM CBN, control cells, significantly increased) is 1.82-fold. Also, the “Late apoptosis compared with control cells levels in cells expressing M-protein” value in experiment [1] (2 μM CBN (text 2 mM), M-protein) is on record as “CBN augmented”. For the same molecule, the “early apoptosis index (pSIVA)” value in experiment [1] (setting [4]), in experiment [1] (setting [15]), in experiment [1] (setting [6]), in experiment [1] (setting [12]), in experiment [1] (setting [7]) and in experiment [1] (setting [13]) was “significant increases” in each case. In addition, the “early apoptosis index (pSIVA)” value in experiment [1] (setting [8]) and in experiment [1] (setting [14]) was “significant increase” each time. In addition, the “late apoptosis index (PI)” value in experiment [1] (setting [4]), in experiment [1] (setting [15]), in experiment [1] (setting [6]), in experiment [1] (setting [12]), in experiment [1] (setting [7]) and in experiment [1] (setting [13]) was “significant increases” in each case. Moreover, the “late apoptosis index (PI)” value in experiment [1] (setting [8]) and in experiment [1] (setting [14]) was “significant increase” throughout. The “early apoptosis, dose-dependent effects” value is given as “significant increases” in experiment [1] (setting [9]) and “some significant increases” in experiment [1] (control plasmid (pCMV)). For the same molecule, the entries for the “late apoptosis, dose-dependent effects” value in experiment [1] (setting [9]) and in experiment [1] (control plasmid (pCMV)) were “significant increases” and “some significant increases”, respectively. Further, the “Late Apoptosis Index” value in experiment [1] (cells expressing ORF8, ORF10 or M-protein, 1 μM, vs vehicle) is on record as “augments apoptosis above levels resulting just from viral proteins”; in experiment [1] (cells expressing ORF8, ORF10 or M-protein, 2 μM, vs vehicle), “this augmentation is significant”. Moreover, in experiment [1] (cells expressing ORF8, ORF10 or M-protein, 1 μM, vs vehicle only), the “Early Apoptosis Index” value was “augments apoptosis above levels resulting just from viral proteins”.

Regarding `CCCc1cc(O)c2c(c1)OC(C)(C)[C@@H]1CC=C(C)C[C@@H]21` [d8-THCV, delta 8-tetrahydrocannabivarin], the “mean BrdU incorporation lower than in cells untreated with cannabinoids” value in experiment [2] (cells expressing Orf10, 1 μM) is reported as “less reduction”. Further, the “early apoptosis index (pSIVA)” value is “significant increases” in experiment [1] (setting [4]), “significant increase” in experiment [1] (setting [6]), “significant increases” in experiment [1] (setting [7]) and “do not show any significant increase” in experiment [1] (setting [8]). The “late apoptosis index (PI)” value is “significant increase” in experiment [1] (setting [4]), “significant increase” in experiment [1] (setting [6]) and “do not have significant increases” in experiment [1] (setting [7]). In addition, the “Early Apoptosis Index” value in experiment [1] (setting [5]) is reported as “significantly greater levels of early apoptosis”; in experiment [1] (cells expressing ORF10 or M-protein, 1 μM, vs same cells with vehicle) it was “augmented”. Further, in experiment [1] (cells expressing ORF8 or M-protein, 1 μM, vs vehicle only), the “Late Apoptosis Index” value is reported as “significantly augmented”.
